# Measured values from the supplement of paper PMC7826260.
# The other results are listed elsewhere or left out. Each Rep nickase domain was tested in vitro on the same pool of single strands at 3 µM enzyme and 37 °C for 1 h; the strands have 90 letters, of which the middle is given. A value is the log2 ratio of uncut reads to the pool without enzyme; strong cutting gives strongly negative numbers. There is no active / inactive call. Reads are scaled to the total, so uncut sequences can rise above 0 when many others are cut.
# Legend:
# Experiment in all cases: uncleaved DNA left, log2 of reads against the no-enzyme library (log2 ratio); higher = less cleavage (more negative = more Rep cleavage of the k-mer); sequences stand for … in CTCGTCCG…ACCGGAGA
# [1] = tested on: T1, Rep nickase domain of Muscovy duck circovirus
# T1 sequence (protein, residues 1-111, tag omitted): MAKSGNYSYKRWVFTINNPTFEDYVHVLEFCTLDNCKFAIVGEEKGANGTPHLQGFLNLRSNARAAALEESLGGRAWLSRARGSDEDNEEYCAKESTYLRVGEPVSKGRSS
# Method: (§1)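 A pool of 90-nt single-stranded DNAs with seven random bases just before the constant AC of the nick site (name = the seven bases) was cut by 3 µM recombinant His6-SUMO-tagged Rep nickase domain (300 nM DNA, 50 mM HEPES pH 8.0, 50 mM NaCl, 1 mM MnCl2, 1 h, 37 °C, three replicates). Uncut DNA was amplified and sequenced.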
# [2] = tested on: T2, Rep nickase domain of banana bunchy top virus
# T2 sequence (protein, residues 1-94, tag omitted): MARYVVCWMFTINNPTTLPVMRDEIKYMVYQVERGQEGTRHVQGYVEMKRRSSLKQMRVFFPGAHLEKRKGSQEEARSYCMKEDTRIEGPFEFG
# Method: as §1
# [3] = tested on: T3, Rep nickase domain of cabbage leaf curl virus
# T3 sequence (protein, residues 1-116, tag omitted): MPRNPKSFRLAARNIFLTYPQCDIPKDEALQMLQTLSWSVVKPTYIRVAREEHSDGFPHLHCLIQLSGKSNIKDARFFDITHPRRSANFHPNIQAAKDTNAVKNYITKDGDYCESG
# Method: as §1
# [4] = tested on: T4, Rep nickase domain of chickpea chlorotic dwarf virus
# T4 sequence (protein, residues 1-124, tag omitted): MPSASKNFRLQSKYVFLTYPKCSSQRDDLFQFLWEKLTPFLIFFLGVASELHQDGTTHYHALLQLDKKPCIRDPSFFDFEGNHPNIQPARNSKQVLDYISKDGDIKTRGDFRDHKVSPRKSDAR
# Method: as §1
# [5] = tested on: T5, Rep nickase domain of faba bean necrotic yellows virus
# T5 sequence (protein, residues 1-98, tag omitted): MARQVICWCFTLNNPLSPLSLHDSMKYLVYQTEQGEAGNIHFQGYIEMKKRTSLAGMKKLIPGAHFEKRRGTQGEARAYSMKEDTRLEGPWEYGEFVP
# Method: as §1
# [6] = tested on: T6, Rep nickase domain of maize striate mosaic virus
# T6 sequence (protein, residues 1-117, tag omitted): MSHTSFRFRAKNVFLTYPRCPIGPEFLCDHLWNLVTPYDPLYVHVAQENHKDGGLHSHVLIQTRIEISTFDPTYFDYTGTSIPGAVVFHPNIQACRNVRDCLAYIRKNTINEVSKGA
# Method: as §1
# [7] = tested on: T7, Rep nickase domain of porcine circovirus 2
# T7 sequence (protein, residues 2-116, tag omitted): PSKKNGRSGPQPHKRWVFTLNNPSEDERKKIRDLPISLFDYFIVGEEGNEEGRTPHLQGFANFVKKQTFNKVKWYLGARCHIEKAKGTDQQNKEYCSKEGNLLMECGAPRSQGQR
# Method: as §1
# [8] = tested on: T8, Rep nickase domain of tomato golden mosaic virus
# T8 sequence (protein, residues 1-124, tag omitted): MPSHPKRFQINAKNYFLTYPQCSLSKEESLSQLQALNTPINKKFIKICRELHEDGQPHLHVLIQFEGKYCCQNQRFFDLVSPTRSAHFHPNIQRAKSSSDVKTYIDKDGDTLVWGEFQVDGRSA
# Method: as §1
# [9] = tested on: T9, Rep nickase domain of tomato yellow leaf curl virus
# T9 sequence (protein, residues 1-136, tag omitted): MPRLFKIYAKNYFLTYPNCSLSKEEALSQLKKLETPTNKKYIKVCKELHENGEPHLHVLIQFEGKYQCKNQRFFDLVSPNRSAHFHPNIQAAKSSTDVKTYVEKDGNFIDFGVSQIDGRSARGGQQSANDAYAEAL
# Method: as §1
# [10] = tested on: T10, Rep nickase domain of wheat dwarf virus
# T10 sequence (protein, residues 1-137, tag omitted): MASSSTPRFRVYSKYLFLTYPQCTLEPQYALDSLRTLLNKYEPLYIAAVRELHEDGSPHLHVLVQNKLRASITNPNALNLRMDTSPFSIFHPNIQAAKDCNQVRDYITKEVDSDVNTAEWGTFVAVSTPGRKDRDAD
# Method: as §1
Sequence,uncleaved DNA left (log2) [1],uncleaved DNA left (log2) [2],uncleaved DNA left (log2) [3],uncleaved DNA left (log2) [4],uncleaved DNA left (log2) [5],uncleaved DNA left (log2) [6],uncleaved DNA left (log2) [7],uncleaved DNA left (log2) [8],uncleaved DNA left (log2) [9],uncleaved DNA left (log2) [10]
GTTCCCC,-0.135,0.0869,0.313,0.94,-0.0828,1.51,-1.6,-0.0538,0.0653,0.119
TATAGTC,0.0205,-0.0562,0.0292,-0.563,-0.172,-0.929,0.0274,-0.101,-0.124,0.00589
ATCGCTG,0.0172,0.116,0.207,0.867,-0.0557,1.31,0.0605,0.0622,-0.12,0.0363
GAACGCC,0.16,0.0911,0.232,0.164,-0.0132,0.403,0.123,0.0338,0.1,0.0193
TCTTTGC,-0.106,-0.078,-0.715,-0.367,0.133,-1.32,0.105,-0.142,0.0448,-0.182
TGTCTCT,0.0613,-0.0608,0.182,-0.891,0.0353,0.461,-0.247,-0.0339,-0.00956,-0.141
CTTGACT,0.0823,-0.12,-0.174,-2.48,0.0631,-0.373,-1.7,0.0217,-0.00491,-0.0754
TCATGAA,0.0343,-0.0746,-0.0915,-0.441,0.104,-0.688,-0.148,0.0549,0.0269,-0.0348
CTGATAA,0.0721,0.101,-0.106,-0.131,-0.0726,-0.356,-0.0434,0.176,0.0393,0.121
GGTATGC,0.0223,0.0706,0.266,0.767,-0.0479,0.447,0.113,-0.0434,0.0139,0.149
TTGCTAG,0.0398,-0.0543,-0.825,-0.133,0.0168,-0.96,0.187,0.029,0.102,0.0232
CAAAGTT,-0.18,-0.241,-3.46,-3.08,0.108,-2.07,-1.81,-1.72,-0.175,-2.58
CACAATT,-0.0533,-0.96,-0.826,-2.94,0.0693,-0.798,-3.18,-0.0635,0.0189,0.115
CCAAGGT,0.153,0.0268,0.427,1.1,0.134,1.44,0.197,0.188,0.0202,0.111
GATGCGT,0.17,0.102,-0.624,0.0203,0.116,-0.635,0.138,0.0572,0.115,0.0384
CGATGTT,-2.83,-0.301,-0.838,-1.98,0.0468,-0.128,-3.2,-0.444,-0.0854,-0.77
CACTACA,-0.2,-0.345,-0.463,-3.01,-0.114,-0.904,-2.24,-0.157,-0.038,-0.0571
TCACGCC,0.0277,-0.085,-0.043,-0.475,-0.0237,-0.735,0.00461,-0.00901,-0.0677,-0.0064
CCGGCAT,0.141,0.164,0.536,1.02,0.0348,1.32,0.052,0.068,0.018,0.0518
TTAGCGG,0.0211,-0.014,0.398,1.04,-0.0811,1.21,0.0868,0.0856,-0.071,0.0246

Sequence,uncleaved DNA left (log2) [1],uncleaved DNA left (log2) [2],uncleaved DNA left (log2) [3],uncleaved DNA left (log2) [4],uncleaved DNA left (log2) [5],uncleaved DNA left (log2) [6],uncleaved DNA left (log2) [7],uncleaved DNA left (log2) [8],uncleaved DNA left (log2) [9],uncleaved DNA left (log2) [10]
GTTCCTA,-0.0588,0.113,0.354,0.855,0.102,1.81,0.0595,0.0995,0.0151,0.0603
ACAACTA,-0.134,-0.0554,-0.309,-1.82,-0.0364,-0.853,-0.0669,-0.0259,-0.172,0.0152
TTAATCA,0.0679,0.197,0.501,0.179,0.0795,0.759,0.153,0.1,0.351,0.294
ATCGACA,-0.079,-0.0411,-0.125,-0.104,-0.0968,0.494,-0.111,-0.00945,0.079,0.00178
CGGACGA,-0.0393,0.0992,0.607,1.58,-0.0458,1.72,0.0447,-0.0788,0.00722,0.134
ATGGGTA,-0.0181,-0.188,0.112,0.798,-0.0196,1.15,-0.0289,0.0752,-0.121,-0.106
CTATGTA,-0.395,-0.000402,-0.257,-1.3,0.0451,-0.774,-0.396,-0.0804,0.0111,-0.014
TTGTTAA,0.11,0.127,0.376,0.56,0.0574,1.11,0.0524,0.206,-0.00401,0.174
GGGACGC,-0.0186,0.061,0.867,2.07,-0.0351,2.28,0.219,0.0537,-0.104,0.162
CCAGGTC,0.0455,0.0547,0.403,0.657,-0.0994,0.579,-0.051,0.0407,0.0256,0.0486
GCAAGTC,-0.0473,-0.0227,-0.429,-0.365,-0.153,-0.469,0.000897,-0.0662,-0.0918,-0.132
CGCTAAG,0.0243,0.016,-0.723,-0.555,-0.00824,-0.894,0.107,0.0285,-0.0553,-0.147
ACGAATT,-0.0706,-0.0934,-0.331,-2.05,-0.0112,-0.404,-0.595,-0.013,-0.115,-0.0209
ACGCAAT,-0.0702,0.0962,-0.158,-0.493,0.127,-0.516,-0.0515,0.132,-0.119,-0.0311
GGCGAAC,-0.0187,0.0463,0.378,1.08,0.0996,1.41,0.103,0.0281,-0.09,0.0585
ACGATGA,-0.0442,-0.0101,-0.0118,0.24,-0.0215,-0.34,0.0577,0.17,-0.0209,0.000669
TATAGGA,0.0712,0.0505,0.21,0.459,0.222,-0.223,0.198,0.26,0.0668,0.048
CCGAGAC,0.0671,0.0209,0.831,1.49,-0.0426,2.05,-0.0079,-0.0202,-0.0639,0.102
CTGTCAA,0.054,0.0684,0.00829,-0.0252,0.0251,-0.432,0.00597,-0.107,-0.0269,0.0769
TCATAGA,0.104,0.00256,-0.15,-0.253,0.0575,-1.08,0.136,0.0351,0.0856,0.0882

Sequence,uncleaved DNA left (log2) [1],uncleaved DNA left (log2) [2],uncleaved DNA left (log2) [3],uncleaved DNA left (log2) [4],uncleaved DNA left (log2) [5],uncleaved DNA left (log2) [6],uncleaved DNA left (log2) [7],uncleaved DNA left (log2) [8],uncleaved DNA left (log2) [9],uncleaved DNA left (log2) [10]
CAACTCC,-0.0865,0.0339,-0.222,-0.561,-0.0759,0.546,0.000741,-0.0203,-0.0217,0.025
ACGGGCC,-0.0698,0.0878,-0.0324,0.248,-0.0101,0.165,0.199,0.0799,-0.0201,-0.0324
TCTCCTT,-0.0627,-0.222,-0.026,-1.49,-0.0509,0.485,-0.496,-0.217,-0.144,-0.0908
TGCTATG,0.181,0.0566,-0.118,-0.00451,0.0387,-0.11,0.0999,0.0199,0.000526,0.0265
TCCGTTT,0.063,-0.0312,0.184,-0.32,-0.011,0.612,-0.158,0.0194,0.182,0.0659
CTAGGCG,-0.105,-0.144,-0.934,0.283,-0.0227,-0.772,0.059,-0.137,0.0379,-0.0813
TAATGGG,0.0281,0.0159,-1.07,-1.12,-0.0863,-1.14,0.154,-0.0276,0.056,-0.0779
GATGTTT,0.0568,-0.41,0.214,-0.785,0.0519,0.917,-0.382,-0.0438,0.111,-0.0239
CTGACCA,-0.0525,0.0464,-0.0454,0.158,-0.0567,0.217,0.00904,-0.0393,-0.0336,-0.0191
TTTATGG,0.0074,0.0316,0.506,1.33,0.111,1.68,0.181,0.192,-0.0696,0.0634
GGCAGAT,0.0308,0.0135,0.659,1.63,-0.0296,1.98,0.174,-0.0257,0.0605,0.101
GAGCACC,-0.0711,0.015,0.218,0.513,-0.0843,0.753,-0.0988,-0.0603,-0.00267,0.0341
CCGCTGC,-0.131,-0.351,-0.414,-0.124,-0.17,-0.37,-0.0365,-0.191,-0.197,-0.372
CTCTGCC,-0.0369,-0.0877,-0.201,-0.6,-0.0366,-0.797,-0.413,-0.0907,-0.0577,-0.155
CGAATCG,-0.136,-0.0252,-0.729,-0.634,-0.016,-1.24,0.0675,-0.105,-0.125,-0.138
TCATCCA,-0.0555,0.0447,0.0847,-1.1,-0.0299,-0.293,-0.13,-0.0114,-0.0447,-0.067
ATTTCTA,-0.139,-0.161,-0.0409,-1.54,-0.0331,-0.622,-0.332,-0.0165,0.0421,0.0995
GGAATTA,0.109,0.211,0.648,1.42,0.114,2.02,0.184,0.0604,0.142,0.209
TGCATAC,0.0744,0.115,0.283,0.356,0.046,0.483,0.144,0.102,0.116,0.0335
TAATTCT,-4.04,-2.22,-4.94,-3.66,-0.262,-4.52,-4.43,-4.64,-3.52,-5.01
